Screen size: about 45,000 compounds; about 200 (0.44%) were called active. Another 7% or so got no clear call; they are omitted. Calls come from the whole dose curve; as a rule, active = well fitted activation curve with a large enough effect; inconclusive = small, poorly fitted or top-dose-only effect; inactive = no such curve, though single readings can be large or run the other way. Some of the results follow.

A short description of the experiment: qHTS of TDP-43 Inhibitors: NCGC Sytravon Library Screen. Note: 0% is about no effect; nearly all actives have a fitted effect of over 55% in size. The note with it: yeast TDP-43 toxicity rescue, BacTiter-Glo growth, 24 h; series mostly up to 46.1 µM; growth rescue (activation): at the top concentration. Put shortly: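 TDP-43-expressing yeast, pregrown in raffinose, seeded at OD600 0.02 in galactose medium with compound for 24 hr at 30 deg C. Growth read by BacTiter-Glo luminescence, so rescue of toxicity appears as activation.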
Regarding `CCOc1ccccc1C1C2CCCCC2(O)CCN1C(=O)c1cccs1` (centres undefined), the “growth rescue (activation)” value is inactive: 10.4%.

`Cc1cc(C)c(S(=O)(=O)N2CCCC(C(=O)N3CCCC3)C2)c(C)c1` (centres undefined): the “growth rescue (activation)” value is inactive: 29.7%.

In the case of `COCCN1C(=O)c2ccccc2C(C(=O)N2CCN(c3ccccn3)CC2)C1c1ccc(F)cc1` (centres undefined), the “growth rescue (activation)” value is inactive: 5.3%.

For the molecule `CCN(C(=O)CSc1nc(-c2cccs2)nc2ccccc12)C1CCS(=O)(=O)C1` (centres undefined), the “growth rescue (activation)” value is inactive: 7.95%.

Consider `COCc1c(C(=O)N/N=C\c2cccs2)nnn1-c1nonc1N`, for which the “growth rescue (activation)” value was inactive: 6.59%.

Consider `COc1ccc(CNC(=O)N2CCN(c3ccccc3OC)CC2)cc1`, for which the “growth rescue (activation)” value is inactive: 16.8%.

For `Cc1ccc(S(=O)(=O)NC(=O)C2(C)CCN2C(=O)Cc2ccc(Cl)cc2Cl)nc1` (centres undefined), the “growth rescue (activation)” value was inactive: 14.5%.

Turning to `O=c1[nH]c(C2CCN(S(=O)(=O)c3ccc([N+](=O)[O-])cc3)CC2)nc2c1nnn2Cc1ccccc1`, the “growth rescue (activation)” value was inactive: 19.6%.

With `O=C(O)Cc1ccc(NC(=O)c2cccc(NC(=O)c3ccco3)c2)cc1`, the “growth rescue (activation)” value was inactive: -5.05%.

As for `Cc1oc(-c2cccc(C(F)(F)F)c2)nc1CN1CCOCC1`, the “growth rescue (activation)” value was inactive: 15.4%.

`O=S(=O)(NCCN1CCOCC1)c1ccc(Oc2ccccc2Cl)cc1`: the “growth rescue (activation)” value was inactive: -4.87%.

Regarding `COc1cccc(N2CCN(C(=O)CCNS(=O)(=O)c3ccc4c(c3)c(=O)n(C)c(=O)n4C)CC2)c1`, the “growth rescue (activation)” value was inactive: 3.12%.

On to `Cc1ccc(-c2cnc(C(O)c3ccc(Cl)cc3C)[nH]2)cc1` (centres undefined), for which the “growth rescue (activation)” value is inactive: 11.8%.

`COCCn1c(SCC#N)nnc1-c1ccc([N+](=O)[O-])cc1`: the “growth rescue (activation)” value is inactive: 11.9%.

Take `CC(=O)N(Cc1ccccc1)c1ccccc1C(=O)O`: the “growth rescue (activation)” value is inactive: 10.9%.

As to `Cc1cccc(C)c1NC(=O)CSc1nnc(C2CCCCC2)o1`, the “growth rescue (activation)” value is inactive: 36.9%.

For the molecule `O=C(O)CCC(=O)N1N=C(c2ccccc2)CC1c1cccs1` (centres undefined), the “growth rescue (activation)” value is inactive: -12%.

For `Cc1ccc(CNC(=O)C2CCC(CNS(=O)(=O)c3cccs3)CC2)cc1` (centres undefined), the “growth rescue (activation)” value is inactive: 3.08%.

For the molecule `COc1ccccc1CNC(=O)CN1C(=O)c2cccnc2Oc2ccccc21`, the “growth rescue (activation)” value is inactive: 11.9%.

Consider `CCOC(=O)C1(C)CCCN(C(=O)c2ccc(F)c(Cl)c2)C1` (centres undefined), for which the “growth rescue (activation)” value was inactive: 6.28%.

Consider `COc1ccccc1NC(=O)CC(=O)Nc1ccccc1OC`, for which the “growth rescue (activation)” value is inactive: 1.48%.

As to `COc1ccc(NC(=O)N(Cc2cc3ccc(OC)cc3[nH]c2=O)CC2CCCO2)cc1` (centres undefined), the “growth rescue (activation)” value is inactive: -9.33%.

As to `CCn1cc(C(=O)O)c(=O)c2cc(F)c(N3CCN(S(=O)(=O)c4ccc(NC(C)=O)cc4)CC3)cc21`, the “growth rescue (activation)” value is inactive: 5.25%.

Turning to `C=CCOc1ccc(/C=C2/C(=O)ON=C2C)cc1OC`, the “growth rescue (activation)” value was inactive: 25.8%.

On to `CCOc1ccc(CNC(=O)C2CCN(C(=O)c3sccc3-n3cccc3)CC2)cc1`, for which the “growth rescue (activation)” value was inactive: 11.4%.

For the molecule `Cc1cccc(/C(N)=N/OC(=O)c2ccoc2C)c1`, the “growth rescue (activation)” value is inactive: -14%.

As for `CN(C)c1ccc(/C=C(\C#N)c2ccccn2)cc1`, the “growth rescue (activation)” value was inactive: -19.7%.

As for `O=C(CSCc1ccccc1)Nc1ccccc1C(=O)Nc1ccc(C(=O)O)cc1`, the “growth rescue (activation)” value is inactive: 1.2%.

For the molecule `N#CC1=C(N)Oc2ccc3ccccc3c2C1c1cccnc1` (centres undefined), the “growth rescue (activation)” value is inactive: 3.92%.
